Test results from the supplement of paper PMC8728848.
Some of the results follow.

Assays:
Test in all cases: glycan array binding signal (z-score within array); higher = stronger binding
Details in all cases: glycan notation: IUPAC condensed, linker removed; mutation: H59Q
[1] = target: GlcNAc(a1-6)Gal(b1-4)GlcNAc
Method in brief: (§1)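 Negative Z-scores can be read as non-binding. The Z-score is calculated within each array and then averaged across arrays of one protein sequence at different concentrations or buffers and across linkers. Arrays, 3228 in all, were curated from the Consortium for Functional Glycomics database and kept only where the protein sequence was available.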

[2] = target: GlcNAc(b1-2)Gal(b1-3)GalNAc
Method in brief: as §1

[3] = target: GlcNAc(b1-2)Man(a1-3)[GlcNAc(b1-2)Man(a1-6)]Man(b1-4)GlcNAc(b1-4)GlcNAc
Method in brief: as §1

[4] = target: GlcNAc(b1-2)Man(a1-3)[GlcNAc(b1-2)Man(a1-6)]Man(b1-4)GlcNAc(b1-4)[Fuc(a1-6)]GlcNAc
Method in brief: as §1

[5] = target: GlcNAc(b1-2)Man(a1-3)[GlcNAc(b1-4)][GlcNAc(b1-2)Man(a1-6)]Man(b1-4)GlcNAc(b1-4)GlcNAc
Method in brief: as §1

[6] = target: GlcNAc(b1-2)Man(a1-3)[GlcNAc(b1-4)][GlcNAc(b1-2)Man(a1-6)]Man(b1-4)GlcNAc(b1-4)[Fuc(a1-6)]GlcNAc
Method in brief: as §1

[7] = target: GlcNAc(b1-2)[GlcNAc(b1-4)]Man(a1-3)[GlcNAc(b1-2)Man(a1-6)]Man(b1-4)GlcNAc(b1-4)GlcNAc
Method in brief: as §1

[8] = target: GlcNAc(b1-2)[GlcNAc(b1-4)]Man(a1-3)[GlcNAc(b1-4)][GlcNAc(b1-2)Man(a1-6)]Man(b1-4)GlcNAc(b1-4)GlcNAc
Method in brief: as §1

[9] = target: GlcNAc(b1-2)[GlcNAc(b1-4)]Man(a1-3)[GlcNAc(b1-4)][GlcNAc(b1-2)[GlcNAc(b1-6)]Man(a1-6)]Man(b1-4)GlcNAc(b1-4)GlcNAc
Method in brief: as §1

[10] = target: GlcNAc(b1-2)[GlcNAc(b1-4)]Man(a1-3)[GlcNAc(b1-4)][GlcNAc(b1-2)[GlcNAc(b1-6)]Man(a1-6)]Man(b1-4)GlcNAc(b1-4)[Fuc(a1-6)]GlcNAc
Method in brief: as §1

[11] = target: GlcNAc(b1-2)[GlcNAc(b1-6)]Man(a1-6)[GlcNAc(b1-2)Man(a1-3)]Man(b1-4)GlcNAc(b1-4)GlcNAc
Method in brief: as §1

[12] = target: GlcNAc(b1-2)[GlcNAc(b1-6)]Man(a1-6)[GlcNAc(b1-2)Man(a1-3)]Man(b1-4)GlcNAc(b1-4)[Fuc(a1-6)]GlcNAc
Method in brief: as §1

[13] = target: GlcNAc(b1-2)[GlcNAc(b1-6)]Man(a1-6)[GlcNAc(b1-4)][GlcNAc(b1-2)Man(a1-3)]Man(b1-4)GlcNAc(b1-4)GlcNAc
Method in brief: as §1

GlcNAc(b1-3)Fuc = target: GlcNAc(b1-3)Fuc
Method in brief: as §1

GlcNAc(b1-3)Gal = target: GlcNAc(b1-3)Gal
Method in brief: as §1

[14] = target: GlcNAc(b1-3)Gal(b1-3)GalNAc
Method in brief: as §1

GlcNAc(b1-3)Gal(b1-4)Glc = target: GlcNAc(b1-3)Gal(b1-4)Glc
Method in brief: as §1

[15] = target: GlcNAc(b1-3)Gal(b1-4)GlcNAc
Method in brief: as §1

[16] = target: GlcNAc(b1-3)Gal(b1-4)GlcNAc(b1-2)Man(a1-3)[GlcNAc(b1-3)Gal(b1-4)GlcNAc(b1-2)Man(a1-6)]Man(b1-4)GlcNAc(b1-4)GlcNAc
Method in brief: as §1

[17] = target: GlcNAc(b1-3)Gal(b1-4)GlcNAc(b1-2)Man(a1-3)[GlcNAc(b1-3)Gal(b1-4)GlcNAc(b1-2)Man(a1-6)]Man(b1-4)GlcNAc(b1-4)[Fuc(a1-6)]GlcNAc
Method in brief: as §1

[18] = target: GlcNAc(b1-3)Gal(b1-4)GlcNAc(b1-2)[GlcNAc(b1-3)Gal(b1-4)GlcNAc(b1-6)]Man(a1-6)[GlcNAc(b1-3)Gal(b1-4)GlcNAc(b1-2)Man(a1-3)]Man(b1-4)GlcNAc(b1-4)GlcNAc
Method in brief: as §1

[19] = target: GlcNAc(b1-3)Gal(b1-4)GlcNAc(b1-3)Gal(b1-4)GlcNAc
Method in brief: as §1

[20] = target: GlcNAc(b1-3)Gal(b1-4)GlcNAc(b1-3)Gal(b1-4)GlcNAc(b1-2)Man(a1-3)[GlcNAc(b1-3)Gal(b1-4)GlcNAc(b1-3)Gal(b1-4)GlcNAc(b1-2)Man(a1-6)]Man(b1-4)GlcNAc(b1-4)GlcNAc
Method in brief: as §1

[21] = target: GlcNAc(b1-3)Gal(b1-4)GlcNAc(b1-3)Gal(b1-4)GlcNAc(b1-2)Man(a1-3)[GlcNAc(b1-3)Gal(b1-4)GlcNAc(b1-3)Gal(b1-4)GlcNAc(b1-2)Man(a1-6)]Man(b1-4)GlcNAc(b1-4)[Fuc(a1-6)]GlcNAc
Method in brief: as §1

[22] = target: GlcNAc(b1-3)Gal(b1-4)GlcNAc(b1-3)Gal(b1-4)GlcNAc(b1-2)[GlcNAc(b1-3)Gal(b1-4)GlcNAc(b1-3)Gal(b1-4)GlcNAc(b1-6)]Man(a1-6)[GlcNAc(b1-3)Gal(b1-4)GlcNAc(b1-3)Gal(b1-4)GlcNAc(b1-2)Man(a1-3)]Man(b1-4)GlcNAc(b1-4)[Fuc(a1-6)]GlcNAc
Method in brief: as §1

[23] = target: GlcNAc(b1-3)Gal(b1-4)GlcNAc(b1-3)Gal(b1-4)GlcNAc(b1-3)Gal(b1-4)GlcNAc(b1-2)Man(a1-3)[GlcNAc(b1-3)Gal(b1-4)GlcNAc(b1-3)Gal(b1-4)GlcNAc(b1-3)Gal(b1-4)GlcNAc(b1-2)Man(a1-6)]Man(b1-4)GlcNAc(b1-4)GlcNAc
Method in brief: as §1

[24] = target: GlcNAc(b1-3)Gal(b1-4)GlcNAc(b1-3)Gal(b1-4)GlcNAc(b1-3)Gal(b1-4)GlcNAc(b1-2)Man(a1-3)[GlcNAc(b1-3)Gal(b1-4)GlcNAc(b1-3)Gal(b1-4)GlcNAc(b1-3)Gal(b1-4)GlcNAc(b1-2)Man(a1-6)]Man(b1-4)GlcNAc(b1-4)[Fuc(a1-6)]GlcNAc
Method in brief: as §1

[25] = target: GlcNAc(b1-3)Gal(b1-4)GlcNAc(b1-3)Gal(b1-4)GlcNAc(b1-3)Gal(b1-4)GlcNAc(b1-2)[GlcNAc(b1-3)Gal(b1-4)GlcNAc(b1-3)Gal(b1-4)GlcNAc(b1-3)Gal(b1-4)GlcNAc(b1-6)]Man(a1-6)[GlcNAc(b1-3)Gal(b1-4)GlcNAc(b1-3)Gal(b1-4)GlcNAc(b1-3)Gal(b1-4)GlcNAc(b1-2)Man(a1-3)]Man(b1-4)GlcNAc(b1-4)[Fuc(a1-6)]GlcNAc
Method in brief: as §1

[26] = target: GlcNAc(b1-3)Gal(b1-4)GlcNAc(b1-3)Gal(b1-4)GlcNAc(b1-3)Gal(b1-4)GlcNAc(b1-3)Gal(b1-4)GlcNAc(b1-2)Man(a1-3)[GlcNAc(b1-3)Gal(b1-4)GlcNAc(b1-3)Gal(b1-4)GlcNAc(b1-3)Gal(b1-4)GlcNAc(b1-3)Gal(b1-4)GlcNAc(b1-2)Man(a1-6)]Man(b1-4)GlcNAc(b1-4)GlcNAc
Method in brief: as §1

[27] = target: GlcNAc(b1-3)Gal(b1-4)GlcNAc(b1-3)Gal(b1-4)GlcNAc(b1-3)Gal(b1-4)GlcNAc(b1-3)Gal(b1-4)GlcNAc(b1-2)Man(a1-3)[GlcNAc(b1-3)Gal(b1-4)GlcNAc(b1-3)Gal(b1-4)GlcNAc(b1-3)Gal(b1-4)GlcNAc(b1-3)Gal(b1-4)GlcNAc(b1-2)Man(a1-6)]Man(b1-4)GlcNAc(b1-4)[Fuc(a1-6)]GlcNAc
Method in brief: as §1

[28] = target: GlcNAc(b1-3)Gal(b1-4)GlcNAc(b1-3)Gal(b1-4)GlcNAc(b1-3)Gal(b1-4)GlcNAc(b1-3)Gal(b1-4)GlcNAc(b1-2)[GlcNAc(b1-3)Gal(b1-4)GlcNAc(b1-3)Gal(b1-4)GlcNAc(b1-3)Gal(b1-4)GlcNAc(b1-3)Gal(b1-4)GlcNAc(b1-6)]Man(a1-6)[GlcNAc(b1-3)Gal(b1-4)GlcNAc(b1-3)Gal(b1-4)GlcNAc(b1-3)Gal(b1-4)GlcNAc(b1-3)Gal(b1-4)GlcNAc(b1-2)Man(a1-3)]Man(b1-4)GlcNAc(b1-4)[Fuc(a1-6)]GlcNAc
Method in brief: as §1

[29] = target: GlcNAc(b1-3)Gal(b1-4)GlcNAc(b1-3)Gal(b1-4)GlcNAc(b1-3)GalNAc
Method in brief: as §1

[30] = target: GlcNAc(b1-3)Gal(b1-4)GlcNAc(b1-3)GalNAc
Method in brief: as §1

[31] = target: GlcNAc(b1-3)Gal(b1-4)GlcNAc(b1-3)[GlcNAc(b1-3)Gal(b1-4)GlcNAc(b1-3)]GalNAc
Method in brief: as §1

[32] = target: GlcNAc(b1-3)Gal(b1-4)GlcNAc(b1-6)[Gal(b1-3)]GalNAc
Method in brief: as §1

[33] = target: GlcNAc(b1-3)Gal(b1-4)GlcNAc(b1-6)[GlcNAc(b1-3)Gal(b1-3)]GalNAc
Method in brief: as §1

[34] = target: GlcNAc(b1-3)Gal(b1-4)GlcNAc(b1-6)[GlcNAc(b1-3)]Gal(b1-4)GlcNAc
Method in brief: as §1

GlcNAc(b1-3)GalNAc = target: GlcNAc(b1-3)GalNAc
Method in brief: as §1

GlcNAc(b1-3)Man = target: GlcNAc(b1-3)Man
Method in brief: as §1

[35] = target: GlcNAc(b1-3)[GlcNAc(b1-4)][GlcNAc(b1-6)]GlcNAc
Method in brief: as §1

[36] = target: GlcNAc(b1-3)[GlcNAc(b1-6)]Gal(b1-4)GlcNAc
Method in brief: as §1

[37] = target: GlcNAc(b1-3)[GlcNAc(b1-6)]GalNAc
Method in brief: as §1

[38] = target: GlcNAc(b1-4)Gal(b1-4)GlcNAc
Method in brief: as §1

GlcNAc(b1-4)GlcNAc = target: GlcNAc(b1-4)GlcNAc
Method in brief: as §1

[39] = target: GlcNAc(b1-4)GlcNAc(b1-4)GlcNAc
Method in brief: as §1

B1: rAAL-H59Q (Agrocybe aegerita), Q6WY08 (protein)
chain: MQGVNIYNISAGTSVDLAAPVTTGDIVTFFSSALNLNAGAGNPNNTTLNLFAENGAYLLQIAFRLQENVIIFNSRQPDGPWLVEQRVSDVANQFAGIDGKAMVTVFDHGDKYQVVINEKTVIQYTKQISGLTLSLSYNATEETSIFSTVVEAVTYTGLALEHHHHHH
- glycan array binding signal (z-score) [1]: -0.073
- glycan array binding signal (z-score) [2]: -0.054
- glycan array binding signal (z-score) [3]: -0.054
- glycan array binding signal (z-score) [4]: -0.07
- glycan array binding signal (z-score) [5]: -0.017
- glycan array binding signal (z-score) [6]: -0.01
- glycan array binding signal (z-score) [7]: -0.076
- glycan array binding signal (z-score) [8]: -0.055
- glycan array binding signal (z-score) [9]: -0.088
- glycan array binding signal (z-score) [10]: -0.148
- glycan array binding signal (z-score) [11]: -0.083
- glycan array binding signal (z-score) [12]: -0.041
- glycan array binding signal (z-score) [13]: -0.043
- glycan array binding signal (z-score) (GlcNAc(b1-3)Fuc): -0.087
- glycan array binding signal (z-score) (GlcNAc(b1-3)Gal): -0.129
- glycan array binding signal (z-score) [14]: -0.049
- glycan array binding signal (z-score) (GlcNAc(b1-3)Gal(b1-4)Glc): -0.126
- glycan array binding signal (z-score) [15]: -0.062
- glycan array binding signal (z-score) [16]: -0.1
- glycan array binding signal (z-score) [17]: -0.041
- glycan array binding signal (z-score) [18]: -0.042
- glycan array binding signal (z-score) [19]: -0.092
- glycan array binding signal (z-score) [20]: -0.053
- glycan array binding signal (z-score) [21]: -0.02
- glycan array binding signal (z-score) [22]: 0.095
- glycan array binding signal (z-score) [23]: -0.073
- glycan array binding signal (z-score) [24]: -0.038
- glycan array binding signal (z-score) [25]: 0.063
- glycan array binding signal (z-score) [26]: -0.002
- glycan array binding signal (z-score) [27]: 0.057
- glycan array binding signal (z-score) [28]: -0.037
- glycan array binding signal (z-score) [29]: -0.108
- glycan array binding signal (z-score) [30]: -0.03
- glycan array binding signal (z-score) [31]: -0.022
- glycan array binding signal (z-score) [32]: -0.03
- glycan array binding signal (z-score) [33]: -0.104
- glycan array binding signal (z-score) [34]: -0.13
- glycan array binding signal (z-score) (GlcNAc(b1-3)GalNAc): -0.079
- glycan array binding signal (z-score) (GlcNAc(b1-3)Man): -0.073
- glycan array binding signal (z-score) [35]: -0.026
- glycan array binding signal (z-score) [36]: -0.118
- glycan array binding signal (z-score) [37]: -0.097
- glycan array binding signal (z-score) [38]: -0.087
- glycan array binding signal (z-score) (GlcNAc(b1-4)GlcNAc): -0.07
- glycan array binding signal (z-score) [39]: -0.083
